Where “and” joins values, the source holds several entries; their conditions need not be identical. Identical values can stand only once. Hit rate of the full screen: of about 48,000 compounds, about 1,200 (2.5%) were called active. Another 2% or so got no clear call; they are omitted.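 Rule for the calls: active = activation of at least 60% and not above a set upper limit (about 1 call in 100 departs from these limits); inconclusive = activation of 40% to 60%, or above that upper limit; inactive = activation under 40%.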 The list shows a part of the results.

The assay addresses Probable G-protein coupled receptor 32 (Homo sapiens) (UniProt O75388). In words: qHTS for Agonists of Human Resolvin D1 Receptor DRV1. Note: 0% is about no effect. As to conditions: CHO-K1 GPR32 beta-arrestin PathHunter luminescence, 90 min; at 76.9 µM; stronger effect = higher value; zero percent set by DMSO-only wells. Summed up: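 Agonism was scored by beta-Gal fragment complementation (chemiluminescent read, 1 h detection at ambient temperature) reporting beta-arrestin binding to GPR32 in engineered CHO-K1 cells. Compound treatment lasted 90 min at 37 C, normalized to a DMSO basal control.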
Chain of UniProt O75388 (O75388 whole entry, looked up, the tested form may be a part): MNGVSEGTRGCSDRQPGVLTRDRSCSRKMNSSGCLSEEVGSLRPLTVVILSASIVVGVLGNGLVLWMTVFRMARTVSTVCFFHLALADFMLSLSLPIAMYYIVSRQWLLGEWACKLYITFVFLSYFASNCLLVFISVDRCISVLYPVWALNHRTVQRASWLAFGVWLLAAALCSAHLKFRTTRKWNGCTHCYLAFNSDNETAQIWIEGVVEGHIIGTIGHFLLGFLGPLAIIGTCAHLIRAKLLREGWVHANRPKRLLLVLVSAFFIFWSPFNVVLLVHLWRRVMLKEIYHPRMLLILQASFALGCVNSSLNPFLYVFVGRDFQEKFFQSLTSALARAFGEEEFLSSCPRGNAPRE
On the technique in general: Quantitative high-throughput screening tests each substance at several concentrations.
`COc1ccc(NC(=O)CSc2nc3nc(C)c(Cc4ccc(C)cc4)c(C)n3n2)cc1OC`: the activation was inactive: 20.4%.

As to `CCCNC(=O)C1CCC(Cn2c(=O)c3sccc3n(Cc3ccccc3C)c2=O)CC1` (stereo not drawn), the activation is inactive: 13.1%.

As for `COc1ccc(Cl)cc1-n1nnc(-c2nc(-c3ccc4c(c3)OCO4)no2)c1C`, the activation was inactive: -4.19%.

Turning to `COc1ccccc1NC(=O)C(=O)c1cc(C)n(-c2ccccc2F)c1C`, the activation was inactive: -28.3%.

With `Cc1cccc(C)c1NC(=O)c1csc2c1CCCC2`, the activation was inactive: -14.9%.

Turning to `Cc1ccc(NC(=O)Nc2nnc(SCC(=O)Nc3ccc(F)cc3F)s2)cc1`, the activation was inactive: -3.93%.

Take `CCc1ccc(NC(=O)c2cc(S(=O)(=O)N3CCCCCC3)ccc2F)cc1`: the activation is inactive: -18.6%.

For `CCCCN1CC(c2nc3ccccc3n2CCCCOc2ccc(C)cc2C)CC1=O` (stereo not drawn), the activation is inactive: 1.74%.

As for `Cc1ccc(-n2ncc3c(NCCCN4CCOCC4)ncnc32)cc1Cl`, the activation is inactive: 13.9%.

`O=C(NCCCc1nc2ccccc2n1Cc1cccc(Cl)c1)c1ccco1`: the activation is inactive: -8.02%.

For `COc1nc(-c2ccc(C)cc2)ccc1-c1noc(-c2ccccc2Br)n1`, the activation is inactive: -6.74%.

As to `COc1cc(OC)c(NC(=O)CCCn2nc(C)c3sc4ccccc4c3c2=O)cc1Cl`, the activation is inactive: -18.1%.

On to `COC(=O)c1ccc(Cl)cc1NC(=O)N1CCCn2nc(C)cc21`, for which the activation was inactive: -13.9%.

For the molecule `C[C@]12CC[C@@H]3c4ccc(O)cc4CC[C@H]3[C@@H]1CCC2=O`, the activation is inactive: -3.88% and inactive: -1.78%.

For the molecule `O=c1c2cccnc2n(Cc2ccccc2F)c(=O)n1Cc1ccccc1Cl`, the activation was inactive: -2.82%.

As to `Cc1ccc(C)c(N2CCN(C(=O)CN3CCSc4ccc(S(=O)(=O)N(C)C)cc43)CC2)c1`, the activation is inactive: -5.07%.

In the case of `CC(=O)Nc1nonc1-c1nnc(SCC(=O)Nc2cc(C)cc(C)c2)n1C`, the activation is inactive: -6.05%.

In the case of `CCCCOC(=O)CSc1nnc(-c2ccccc2)o1`, the activation is inactive: 7.84%.

`O=C(c1ccc(C(F)(F)F)cc1)N1CCC(c2nc(-c3ccc(S(=O)(=O)N4CCCC4)cc3)no2)CC1`: the activation is inactive: 2.2%.

Regarding `COc1cccc(NC(=O)/C(C#N)=C\c2cn(Cc3ccc(C)cc3)c3ccccc23)c1`, the activation was inactive: -9.4%.

With `Cc1oc2ncn(CC(C)C)c(=O)c2c1C(=O)N1CCN(c2ccc(F)cc2)CC1`, the activation is inactive: -10.8%.

Regarding `COc1ccccc1CNc1ccc(-c2nc(C)no2)cc1[N+](=O)[O-]`, the activation is inactive: -4.74%.

On to `COc1ccc(-c2oc3ncn4nc(-c5ccccc5Br)nc4c3c2-c2ccc(OC)cc2)cc1`, for which the activation is inactive: 21.5%.

Consider `Cc1ccc2[nH]c3c(=O)n(CC(=O)N(C)c4cc(Cl)ccc4C)ncc3c2c1`, for which the activation was inactive: -10.3%.

For `O=C(c1ccc2c(c1)N(Cc1cccc(Cl)c1)C(=O)c1ccccc1S2(=O)=O)N1CCCCC1`, the activation was inactive: -36.4%.

In the case of `Cc1ccc(C)c(NC(=O)Cn2cc(C(=O)C3CCCCC3)c3ccccc32)c1`, the activation was inactive: 5.22%.

As to `COc1cccc2c1Oc1ncccc1N(C(=O)CCC(=O)NCc1ccc(N(C)C)cc1)C2`, the activation is inactive: -4.35%.

In the case of `COc1cccc(NC(=O)c2oc3ccccc3c2NC(=O)c2ccc(C(F)(F)F)cc2)c1`, the activation was inactive: -1.71%.

As for `O=C(CN1CCCN(Cc2ccc(Cl)cc2)S1(=O)=O)Nc1ccccc1F`, the activation is inactive: -7.67%.

Regarding `CCOC(=O)c1c(C)[nH]c(C)c1S(=O)(=O)N1CCC(C(=O)N2CCN(c3ccc(Cl)cc3)CC2)CC1`, the activation was inactive: -4.11%.

On to `COc1ccc(-n2c(=O)c3c4c(sc3n(Cc3ccccc3)c2=O)CN(C(C)=O)CC4)cc1OC`, for which the activation is inactive: -25%.

Take `COc1ccccc1NC(=O)c1ccc2c(Cl)c3c(nc2c1)CCCC3`: the activation was inactive: 23.9%.

On to `CCOc1ccc(NC(=O)N2CC=C(c3c[nH]c4ccccc34)CC2)cc1`, for which the activation is inactive: -7.92%.

For the molecule `CC1=C(c2ccc(C)c(C)c2)S(=O)(=O)N=C1N1CCC(C(=O)NCCc2ccc(Cl)cc2)CC1`, the activation was inactive: -6.27%.

Regarding `COc1ccccc1CNC(=O)Cn1c(=O)oc2cc(S(=O)(=O)N3CCCC3)ccc21`, the activation was inactive: -7.12%.

On to `CCOC(=O)c1ccc(NC(=O)C2CC(=O)NC(=Nc3ccc(C)c(C)c3)S2)cc1` (stereo not drawn), for which the activation is inactive: -0.0505%.

In the case of `COc1ccccc1CNC(=O)c1cccc(N2CCCS2(=O)=O)c1`, the activation is inactive: 21.3%.

Turning to `Cc1ccc(N(CC(=O)NCCc2ccccc2C)S(=O)(=O)N(C)C)cc1`, the activation was inactive: 6.93%.

Take `Cc1cccc(NC(=O)Nc2ccc(F)cc2)n1`: the activation was inactive: -11.1%.

As for `CCCCN(C)CCNC(=O)c1ccc(Cn2c(=O)[nH]c3cc(OC)c(OC)cc3c2=O)cc1`, the activation was inactive: 8.54%.

Regarding `CCCCCCCC/C=C\CCCCCCCC(=O)NCCc1ccc(O)c(O)c1`, the activation is inactive: -7.6%.

As for `COc1cc(-c2nc(S(=O)(=O)c3ccc(Br)cc3)c(N3CCOCC3)o2)cc(OC)c1OC`, the activation is inactive: -23.1%.

On to `COc1ccc(-c2noc(N(c3ccc(F)c(Cl)c3)c3nc(-c4ccc(OC)c(OC)c4)no3)n2)cc1OC`, for which the activation is inactive: -1.93%.

As to `COc1ccc(Br)cc1C(=O)Nc1cccc2ccc(C)nc12`, the activation is inactive: 4.5%.

As to `CCc1ccc(CNC(=O)c2ccc3c(Cl)c4c(nc3c2)CCCC4)cc1`, the activation was inactive: -3.68%.

Take `CCc1nc2nc(C)cc(Nc3cc(Cl)ccc3C)n2n1`: the activation is inactive: -8.62%.

Consider `CCOC(=O)c1cnn(-c2ccc(C(=O)Nc3ccc(OC(F)(F)F)cc3)cc2)c1N`, for which the activation is inactive: 28.9%.

For `Cc1cc(N2CCN(c3cccc(C)c3C)CC2)n2cnnc2n1`, the activation is inactive: 6.1%.

Turning to `CC(=O)Nc1ccc(NC(=O)C2CCCN(S(=O)(=O)c3ccc4c(c3)CCCC(=O)N4)C2)cc1` (stereo not drawn), the activation was inactive: 16.8%.

As to `Cc1c(Cl)cccc1NC(=O)CCCn1nc(C)c2sc3ccccc3c2c1=O`, the activation was inactive: -11.2%.

Turning to `COCCCNC(=O)NC(CCC(C)C)c1c(-n2cccc2)sc2c1CCN(C)C2` (stereo not drawn), the activation was inactive: -27%.

For the molecule `Cc1nnc(C)n1-c1ccc(C(=O)Nc2cccc(Br)c2)cc1`, the activation was inactive: -2.06%.

On to `Cc1cccc(Cn2cc3c(=O)n(CC(=O)Nc4c(C)cccc4C)nc-3c3cc(F)ccc32)c1`, for which the activation was inactive: -6.11%.

`COc1cccc(N2CCN(c3c4c(nc5nncn35)CCC4)CC2)c1`: the activation is inactive: -60.8%.

For `CCC1CCCCN1S(=O)(=O)c1ccc(NC(=O)c2cc(=O)c3c(C)cc(C)cc3o2)cc1` (stereo not drawn), the activation is inactive: 5.17%.

Turning to `CC(C)Sc1nc2sc3c(c2c(=O)n1Cc1ccccc1)CCCC3`, the activation is inactive: -25.5%.

For `COC(=O)c1cc2oc3ccccc3c2n1Cc1nc(-c2ccccc2Cl)oc1C`, the activation was inactive: -7.25%.

With `CC1(C)CC(=O)c2cc(-c3nc(-c4ccccc4)cs3)c(=O)[nH]c2C1`, the activation was inactive: 29.6%.

With `Cc1ccc(NC(=O)C2CCN(S(=O)(=O)c3c(C)noc3C)CC2)cc1`, the activation was inactive: 8.5%.

Take `O=C(NCCN1CCN(c2ccccc2)CC1)Nc1cccc(Br)c1`: the activation was inactive: -15%.

In the case of `CCOc1ccc(NC(=O)CSc2nc3ccsc3c(=O)n2C(C)CC)cc1` (stereo not drawn), the activation is inactive: -8.74%.

Consider `CCOc1ccccc1CNC(=O)Cc1ccc(NC(=O)N2CCCCc3ccccc32)cc1`, for which the activation was inactive: -9.48%.

In the case of `COc1ccc(Nc2nc(-c3cccc(Cl)c3)c3c(n2)-c2ccccc2OC3)cc1`, the activation is inactive: -29.2%.

On to `CCOc1ccc(CCNC(=O)CCc2c(C)nc3c(c(C)nn3-c3ccc(C)c(C)c3)c2C)cc1`, for which the activation was inactive: 16.1%.

As to `CCCCNS(=O)(=O)c1ccc2nc(-c3cccnc3)cc(C(=O)NCCCOC(C)C)c2c1`, the activation is inactive: -5.49%.

As to `Cc1ccc2nc(NCc3ccccc3)c3nnnn3c2c1`, the activation is inactive: -17.7%.

Regarding `COc1ccc(-c2noc(N3CCC(C(=O)N4CCN(c5ccccc5OC)CC4)CC3)n2)cc1`, the activation was inactive: 13.8%.

On to `Cc1cccc2c1-c1sc(C(=O)N3CCN(c4ccccc4)CC3)cc1CO2`, for which the activation is inactive: -2.27%.

On to `CCOC(=O)c1cnc2c(C)c(Cl)ccc2c1NCCc1ccc(OC)c(OC)c1`, for which the activation was inactive: -26.8%.

As for `CCOc1cccc(Nc2nn(-c3ccc(OC(F)(F)F)cc3)nc2C(C)=O)c1`, the activation was inactive: -6.96%.

As for `CCC(C)NC(=O)CSc1nc2cc3c(cc2c(=O)n1CCCC(=O)NCCc1ccc(OC)c(OC)c1)OCO3` (stereo not drawn), the activation was inactive: -9.25%.

As for `COc1cccc(-c2nc(S(=O)(=O)c3ccccc3)c(N3CCCCC3)o2)c1`, the activation was inactive: 23.5%.

For `COCCNC(=O)c1ccc2c(=O)n(CCc3ccccc3)c(SCC(=O)CC(=O)OC)nc2c1`, the activation is inactive: -3.74%.

For the molecule `CC(=O)OCC1=C(C(=O)O)N2C(=O)[C@@H](NC(=O)CSc3ccncc3)[C@H]2SC1`, the activation is inactive: 5.32%.

For `COc1ccccc1CNC(=O)c1ccc(CS(=O)(=O)c2c(Cl)cccc2Cl)o1`, the activation is inactive: 18.2%.

On to `Cc1cccc(OCCSc2nc3ccccc3n2CC(=O)N2CCOCC2)c1`, for which the activation was inactive: -14.5%.

Take `CCOC(=O)c1ccc(N2C(=O)c3[nH]nc(-c4ccc(C)cc4)c3C2c2ccc(O)c(OCC)c2)cc1` (stereo not drawn): the activation was inactive: -7.84%.

`CCOC(=O)c1c(C)[nH]c(C)c1S(=O)(=O)N(C)CC(=O)Nc1cc(Cl)ccc1C`: the activation was inactive: 1.25%.

`CCCn1c(=O)c2sccc2n2c(CCCC(=O)N3CCN(c4ccccc4OC)CC3)nnc12`: the activation was inactive: -3.91%.

For `Cc1ccccc1OCCCCn1c(-c2ccc(Cl)cc2)nc2ccccc2c1=O`, the activation is inactive: 12.2%.

On to `CCc1ccc(CNC(=O)c2c3c(nc4ccccc24)C(=O)N(C2CCCCC2)C3)cc1`, for which the activation was inactive: -21.1%.

As for `COc1cc2c(=O)c(C(=O)c3ccc(C)c(C)c3)cn(Cc3ccccc3F)c2cc1OC`, the activation was inactive: 20.7%.

In the case of `Cc1ccc2c(=O)cc(C(=O)Nc3sc4c(c3C(=O)NCc3ccco3)CCC4)oc2c1`, the activation is inactive: 18.3%.
